Measurements taken from patent US20110015138A1 (GENUS ONCOLOGY, published 2011).

Target: T1, purified recombinant NF-κB p65 (UniProt Q04206)
T1 construct: also called purified NF-κB p65
Assay: GST pull-down of purified recombinant p65, immunoblot anti-p65

T1 sequence (Q04206 whole entry): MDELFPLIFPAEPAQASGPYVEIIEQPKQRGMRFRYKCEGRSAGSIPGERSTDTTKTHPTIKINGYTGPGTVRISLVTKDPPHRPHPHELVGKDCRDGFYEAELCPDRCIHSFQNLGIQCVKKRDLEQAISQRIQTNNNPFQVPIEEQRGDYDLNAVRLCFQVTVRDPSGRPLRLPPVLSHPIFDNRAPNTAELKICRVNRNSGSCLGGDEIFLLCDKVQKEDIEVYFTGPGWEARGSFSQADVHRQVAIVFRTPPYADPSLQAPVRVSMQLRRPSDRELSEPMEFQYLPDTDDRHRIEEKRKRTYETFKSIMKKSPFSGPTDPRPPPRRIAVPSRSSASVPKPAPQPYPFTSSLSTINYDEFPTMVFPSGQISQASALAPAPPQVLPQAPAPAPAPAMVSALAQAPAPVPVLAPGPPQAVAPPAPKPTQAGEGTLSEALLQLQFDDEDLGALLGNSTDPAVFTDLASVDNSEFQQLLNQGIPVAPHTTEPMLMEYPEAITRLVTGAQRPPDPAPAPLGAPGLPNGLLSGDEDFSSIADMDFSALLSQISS

B1: GST (other)
chain: not shown
- binding result: no binding
